Some of the results follow. At the low end of the ranking the order means little.
What follows are sequences tested against GST-SBP-SLBP (stem-loop binding protein) (UniProt Q14493) (assay: targeted RNA Bind-n-Seq). Settings: RBNS binding buffer: 25 mM Tris pH 7.5, 150 mM KCl, 3 mM MgCl2, 0.1% Tween, 0.5 mg/mL BSA, 1 mM DTT; 27 nM protein, 750 pM RNA pool; temperature not stated; high values mean tight binding.
“GGUCACGUCUCAAUCAACUCAUUUUCCAGGGAAAUCCCUGGCUAUUUCAACAGCUCGCAGUCAAG” gave a binding signal (log2 fold change) of -0.0971.
“GGUCACGUCUCAAUCAACUCUACUUCAGGAGUUUUCUCCUGUUUACUCAACAGCUCGCAGUCAAG” gave a binding signal (log2 fold change) of 0.0653.
For “GGUCACGUCUCAAUCAACUCUAAAGAGGGGGGGAAAACCCCUUUUCCCUCAACAUCAACAGCUCGCAGUCAAG”, the binding signal (log2 fold change) was -0.113.
Work on “GGUCACGUCUCAAUCAACUCUUUCCCCAGGGAAAUCCCUGGUAUAUUCAACAGCUCGCAGUCAAG” yielded a binding signal (log2 fold change) of -0.0125.
“GGUCACGUCUCAAUCAACUCUAUCUCCAGGGAAAGCCCUGGUUUUCUCAACAGCUCGCAGUCAAG” was tested, and the binding signal (log2 fold change) was -0.282.
Work on “GGUCACGUCUCAAUCAACUCAUUCCCAGGAGUUUCCUCCUGCUUUCUCAACAGCUCGCAGUCAAG” yielded a binding signal (log2 fold change) of 0.00431.
Sequence “GGUCACGUCUCAAUCAACUCCUAAGAGGGGGGGAAAACCCCUUUACCCUCACCAUCAACAGCUCGCAGUCAAG” has a binding signal (log2 fold change) of 0.101.
With “GGUCACGUCUCAAUCAACUCAACUCCCAGGGAAAGCCCUGGCUUAUUCAACAGCUCGCAGUCAAG” the binding signal (log2 fold change) was 0.17.
“GGUCACGUCUCAAUCAACUCAAUUUCAGGAGUUUACUCCUGCUAUUUCAACAGCUCGCAGUCAAG” showed a binding signal (log2 fold change) of 0.286.
“GGUCACGUCUCAAUCAACUCUCACGAGGGGGGGAAAACCCCUUUACCCUCACAUUCAACAGCUCGCAGUCAAG” showed a binding signal (log2 fold change) of 0.0923.
“GGUCACGUCUCAAUCAACUCUAUUUCCAGGGAAAUCCCUGGCUAAUUCAACAGCUCGCAGUCAAG” gave a binding signal (log2 fold change) of -0.106.
“GGUCACGUCUCAAUCAACUCUUCGUCAGGAGUUUUCUCCUGUUAAUUCAACAGCUCGCAGUCAAG” showed a binding signal (log2 fold change) of -0.2.
“GGUCACGUCUCAAUCAACUCAUCUCCAGGAGUUUACUCCUGCAUUUUCAACAGCUCGCAGUCAAG” showed a binding signal (log2 fold change) of 0.0927.
“GGUCACGUCUCAAUCAACUCAGUCUCAGGAGUUUUCUCCUGUUUUCUCAACAGCUCGCAGUCAAG” showed a binding signal (log2 fold change) of -0.0861.
“GGUCACGUCUCAAUCAACUCUACUCCAGGAGUUUUCUCCUGCUUUUUCAACAGCUCGCAGUCAAG” showed a binding signal (log2 fold change) of 0.0453.
For “GGUCACGUCUCAAUCAACUCCUAAGAGGGGGGGAAAACCCCUUUACCCUCGUAAUCAACAGCUCGCAGUCAAG”, the binding signal (log2 fold change) was 0.211.
Sequence “GGUCACGUCUCAAUCAACUCAUCUUCAGGAGUUUACUCCUGUAAUCUCAACAGCUCGCAGUCAAG” has a binding signal (log2 fold change) of -0.0769.
In the case of “GGUCACGUCUCAAUCAACUCAUUCUCAGGAGUUUUCUCCUGUAUACUCAACAGCUCGCAGUCAAG”, the binding signal (log2 fold change) is reported as 0.0687.
For “GGUCACGUCUCAAUCAACUCAAUCCCCAGGGAAAACCCUGGCAAACUCAACAGCUCGCAGUCAAG”, the binding signal (log2 fold change) was -0.0154.
Sequence “GGUCACGUCUCAAUCAACUCAACUCCCAGGGAAAGCCCUGGCUUUUUCAACAGCUCGCAGUCAAG” has a binding signal (log2 fold change) of 0.0567.
“GGUCACGUCUCAAUCAACUCUUUUCCCAGGGAAAACCCUGGCAUUUUCAACAGCUCGCAGUCAAG” showed a binding signal (log2 fold change) of 0.0827.
“GGUCACGUCUCAAUCAACUCUUCUUCCAGGGAAAGCCCUGGCGUAUUCAACAGCUCGCAGUCAAG” was tested, and the binding signal (log2 fold change) was 0.0168.
With “GGUCACGUCUCAAUCAACUCUACUCCAGGAGUUUACUCCUGUAUAUUCAACAGCUCGCAGUCAAG” the binding signal (log2 fold change) was 0.125.
“GGUCACGUCUCAAUCAACUCUUCCCCCAGGGAAACCCCUGGUUAUCUCAACAGCUCGCAGUCAAG” was tested, and the binding signal (log2 fold change) was -0.0551.
“GGUCACGUCUCAAUCAACUCACUAGAGGGGGGGAAAACCCCUUUACCCUCGAUAUCAACAGCUCGCAGUCAAG” gave a binding signal (log2 fold change) of -0.102.
With “GGUCACGUCUCAAUCAACUCAAUCCCAGGAGUUUUCUCCUGUAUACUCAACAGCUCGCAGUCAAG” the binding signal (log2 fold change) was 0.0384.
“GGUCACGUCUCAAUCAACUCAAUCCCCAGGGAAAGCCCUGGCUAUUUCAACAGCUCGCAGUCAAG” showed a binding signal (log2 fold change) of 0.226.
For “GGUCACGUCUCAAUCAACUCAUCCUCAGGAGUUUCCUCCUGUUAUCUCAACAGCUCGCAGUCAAG”, the binding signal (log2 fold change) was 0.203.
With “GGUCACGUCUCAAUCAACUCUUUCGCAGGAGUUUCCUCCUGGUAAUUCAACAGCUCGCAGUCAAG” the binding signal (log2 fold change) was -0.0991.
For “GGUCACGUCUCAAUCAACUCAAUAGAGGGGGGGAAAACCCCUUUACCCUCAAUAUCAACAGCUCGCAGUCAAG”, the binding signal (log2 fold change) was 0.177.
“GGUCACGUCUCAAUCAACUCAACUCCCAGGGAAAUCCCUGGUUUUUUCAACAGCUCGCAGUCAAG” showed a binding signal (log2 fold change) of -0.0561.
Sequence “GGUCACGUCUCAAUCAACUCAUCCCCCAGGGAAAACCCUGGCUUUCUCAACAGCUCGCAGUCAAG” has a binding signal (log2 fold change) of -0.203.
Sequence “GGUCACGUCUCAAUCAACUCAACUCCCAGGGAAAGCCCUGGCAAUCUCAACAGCUCGCAGUCAAG” has a binding signal (log2 fold change) of -0.111.
In the case of “GGUCACGUCUCAAUCAACUCAUACGAGGGGGGGAAAACCCCUUUACCCUCUCAUUCAACAGCUCGCAGUCAAG”, the binding signal (log2 fold change) is reported as 0.144.
For “GGUCACGUCUCAAUCAACUCAACAGAGGGGGGGAAAACCCCUUUACCCUCAGAAUCAACAGCUCGCAGUCAAG”, the binding signal (log2 fold change) was -0.409.
“GGUCACGUCUCAAUCAACUCUAUCCCAGGAGUUUACUCCUGUUAUUUCAACAGCUCGCAGUCAAG” gave a binding signal (log2 fold change) of -0.119.
“GGUCACGUCUCAAUCAACUCAUUCUCAGGAGUUUACUCCUGUAAUUUCAACAGCUCGCAGUCAAG” was tested, and the binding signal (log2 fold change) was 0.0981.
For “GGUCACGUCUCAAUCAACUCUUUUCCAGGAGUUUACUCCUGCAAUUUCAACAGCUCGCAGUCAAG”, the binding signal (log2 fold change) was 0.288.
With “GGUCACGUCUCAAUCAACUCAUUCCCAGGAGUUUCCUCCUGUAUAUUCAACAGCUCGCAGUCAAG” the binding signal (log2 fold change) was 0.205.
“GGUCACGUCUCAAUCAACUCUUCCCCCAGGGAAACCCCUGGCUUAUUCAACAGCUCGCAGUCAAG” was tested, and the binding signal (log2 fold change) was -0.121.
Sequence “GGUCACGUCUCAAUCAACUCCUCAGAGGGGGGGAAAACCCCUUUACCCUCCUAUUCAACAGCUCGCAGUCAAG” has a binding signal (log2 fold change) of 0.227.
In the case of “GGUCACGUCUCAAUCAACUCUAUUCCCAGGGAAAUCCCUGGCAUACUCAACAGCUCGCAGUCAAG”, the binding signal (log2 fold change) is reported as -0.13.
For “GGUCACGUCUCAAUCAACUCUACUCCCAGGGAAAGCCCUGGCUAUUUCAACAGCUCGCAGUCAAG”, the binding signal (log2 fold change) was -0.0216.
“GGUCACGUCUCAAUCAACUCUCCGGAGGGGGGGAAAACCCCUUUACCCUCAACAUCAACAGCUCGCAGUCAAG” was tested, and the binding signal (log2 fold change) was -0.223.
“GGUCACGUCUCAAUCAACUCCUCCGAGGGGGGGAAAACCCCUUUACCCUCAUAAUCAACAGCUCGCAGUCAAG” gave a binding signal (log2 fold change) of -0.105.
“GGUCACGUCUCAAUCAACUCUCCAGAGGGGGGGAAAACCCCUUUGCCCUCAAUUUCAACAGCUCGCAGUCAAG” gave a binding signal (log2 fold change) of -0.117.
With “GGUCACGUCUCAAUCAACUCAACGCCAGGAGUUUCCUCCUGUUUAUUCAACAGCUCGCAGUCAAG” the binding signal (log2 fold change) was -0.0523.
“GGUCACGUCUCAAUCAACUCUACUUCCAGGGAAAACCCUGGUAAACUCAACAGCUCGCAGUCAAG” showed a binding signal (log2 fold change) of 0.0385.
“GGUCACGUCUCAAUCAACUCAACAGAGGGGGGGAAAACCCCUUUACCCUCCAGAUCAACAGCUCGCAGUCAAG” gave a binding signal (log2 fold change) of -0.176.
With “GGUCACGUCUCAAUCAACUCAUUUUCAGGAGUUUACUCCUGUUAUCUCAACAGCUCGCAGUCAAG” the binding signal (log2 fold change) was -0.134.
“GGUCACGUCUCAAUCAACUCCAUAGAGGGGGGGAAAACCCCUUUACCCUCACAAUCAACAGCUCGCAGUCAAG” showed a binding signal (log2 fold change) of -0.00136.
Sequence “GGUCACGUCUCAAUCAACUCUACUUCCAGGGAAAGCCCUGGUAAAUUCAACAGCUCGCAGUCAAG” has a binding signal (log2 fold change) of 0.096.
“GGUCACGUCUCAAUCAACUCAAUCCCAGGAGUUUACUCCUGUUAUUUCAACAGCUCGCAGUCAAG” showed a binding signal (log2 fold change) of 0.0596.
“GGUCACGUCUCAAUCAACUCUAUUUCAGGAGUUUCCUCCUGUAUAUUCAACAGCUCGCAGUCAAG” gave a binding signal (log2 fold change) of -0.0806.
Work on “GGUCACGUCUCAAUCAACUCAUUUUCCAGGGAAAUCCCUGGUAAUUUCAACAGCUCGCAGUCAAG” yielded a binding signal (log2 fold change) of -0.0538.
“GGUCACGUCUCAAUCAACUCUUCCCCAGGAGUUUUCUCCUGUUUUUUCAACAGCUCGCAGUCAAG” was tested, and the binding signal (log2 fold change) was -0.051.
In the case of “GGUCACGUCUCAAUCAACUCUUCUUCAGGAGUUUUCUCCUGUAUUUUCAACAGCUCGCAGUCAAG”, the binding signal (log2 fold change) is reported as 0.0134.
Sequence “GGUCACGUCUCAAUCAACUCUACUUCAGGAGUUUCCUCCUGCUUAUUCAACAGCUCGCAGUCAAG” has a binding signal (log2 fold change) of -0.00559.
In the case of “GGUCACGUCUCAAUCAACUCAUCUUCCAGGGAAAUCCCUGGCAUUUUCAACAGCUCGCAGUCAAG”, the binding signal (log2 fold change) is reported as 0.187.
“GGUCACGUCUCAAUCAACUCUUACGAGGGGGGGAAAACCCCUUUACCCUCAAACUCAACAGCUCGCAGUCAAG” showed a binding signal (log2 fold change) of 0.0503.
For “GGUCACGUCUCAAUCAACUCAAGUCCCAGGGAAAGCCCUGGCAUAUUCAACAGCUCGCAGUCAAG”, the binding signal (log2 fold change) was -0.157.
Sequence “GGUCACGUCUCAAUCAACUCUAACGAGGGGGGGAAAACCCCUUUACCCUCAUCCUCAACAGCUCGCAGUCAAG” has a binding signal (log2 fold change) of 0.151.
In the case of “GGUCACGUCUCAAUCAACUCUAUAGAGGGGGGGAAAACCCCUUUGCCCUCCAAAUCAACAGCUCGCAGUCAAG”, the binding signal (log2 fold change) is reported as -0.191.
For “GGUCACGUCUCAAUCAACUCUUCGCCCAGGGAAACCCCUGGUUAAUUCAACAGCUCGCAGUCAAG”, the binding signal (log2 fold change) was -0.419.
“GGUCACGUCUCAAUCAACUCUACUCCCAGGGAAAGCCCUGGUUAUUUCAACAGCUCGCAGUCAAG” was tested, and the binding signal (log2 fold change) was 0.0779.
“GGUCACGUCUCAAUCAACUCAUGUCCAGGAGUUUUCUCCUGCUAAUUCAACAGCUCGCAGUCAAG” was tested, and the binding signal (log2 fold change) was -0.167.
In the case of “GGUCACGUCUCAAUCAACUCCUCAGAGGGGGGGAAAACCCCUUUACCCUCACAAUCAACAGCUCGCAGUCAAG”, the binding signal (log2 fold change) is reported as -0.106.
With “GGUCACGUCUCAAUCAACUCUUUCGAGGGGGGGAAAACCCCUUUACCCUCUCCAUCAACAGCUCGCAGUCAAG” the binding signal (log2 fold change) was 0.0484.
With “GGUCACGUCUCAAUCAACUCUUUCUCAGGAGUUUACUCCUGCAAAUUCAACAGCUCGCAGUCAAG” the binding signal (log2 fold change) was 0.0277.
“GGUCACGUCUCAAUCAACUCAUACGAGGGGGGGAAAACCCCUUUACCCUCACAAUCAACAGCUCGCAGUCAAG” was tested, and the binding signal (log2 fold change) was -0.0493.
“GGUCACGUCUCAAUCAACUCAAUCCCAGGAGUUUACUCCUGCUAUGUCAACAGCUCGCAGUCAAG” showed a binding signal (log2 fold change) of 0.112.
“GGUCACGUCUCAAUCAACUCUUUCUCCAGGGAAAUCCCUGGCAAAUUCAACAGCUCGCAGUCAAG” was tested, and the binding signal (log2 fold change) was -0.0691.
Sequence “GGUCACGUCUCAAUCAACUCUAAAGAGGGGGGGAAAACCCCUUUACCCUCGUAUUCAACAGCUCGCAGUCAAG” has a binding signal (log2 fold change) of -0.11.
“GGUCACGUCUCAAUCAACUCAUCUCCCAGGGAAAACCCUGGUAAUCUCAACAGCUCGCAGUCAAG” showed a binding signal (log2 fold change) of 0.242.
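Note: DESeq read counts versus GST-SBP nonspecific binding control pulldown.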
